Assay results taken from PubChem BioAssay AID180 (DTP/NCI, 2004).
Not every entry of the source has a single result; some have several. The list is limited to them. There may be further records. Values given together repeat one measurement (runs, samples, wells, individuals or studies).

System: BDF1 mice, Adenocarcinoma 755 s.c., tumor weight T/C
Test: NCI In Vivo Anticancer Drug Screen. Data for tumor model Adenocarcinoma 755 (subcutaneous) in B6D2F1 (BDF1) mice
Conditions: endpoint: mean tumor weight, higher = larger tumour
Procedure: The antitumor activity of compounds was measured in mice bearing transplantable tumors. Survival or tumor size were measured and the results are expressed as the measurement made in the treated group (T) divided by the measurement made in the vehicle treated control group (C). The tumor model used in this assay is Adenocarcinoma 755 (subcutaneous) in B6D2F1 (BDF1) mice

## O=C1[O][Sb]23[O]C(=O)C([O]2)C(O)C(O)C2[O][Sb]4([O]C(=O)C([O]4)C(O)C(O)C1[O]3)[O]C2=O (centres undefined)
dose: 40.0 mg/kg/injection, schedule: Q01DX011 (ip), vehicle: methylcellulose (MC)
  T/C: 45 % of control and 91 % of control

## C=CC(CN1CC1)OC(C)=O (centres undefined)
dose: 3.25 mg/kg/injection, schedule: Q01DX011 (ip), vehicle: saline
  T/C: 1 % of control and 30 % of control
dose: 3.38 mg/kg/injection, schedule: Q01DX011 (ip), vehicle: carboxymethylcellulose (CMC)
  T/C: 24 % of control and 69 % of control
dose: 4.95 mg/kg/injection, schedule: Q01DX011 (ip), vehicle: carboxymethylcellulose (CMC)
  T/C: 11 % of control, 24 % of control, 45 % of control

## O=C1NC(=O)c2cc([N+](=O)[O-])cc3cccc1c23
dose: 170.0 mg/kg/injection, schedule: Q01DX011 (ip), vehicle: methylcellulose (MC)
  T/C: 92 % of control and 168 % of control
dose: 340.0 mg/kg/injection, schedule: Q01DX011 (ip), vehicle: methylcellulose (MC)
  T/C: 83 % of control and 114 % of control

## CC(=O)OCC(=O)[C@@]1(O)CC[C@H]2[C@@H]3CCC4=CC(=O)CC[C@]4(C)[C@H]3[C@@H](O)C[C@@]21C
dose: 15.0 mg/kg/injection, schedule: Q01DX011 (sc), vehicle: steriod suspending solution
  T/C: 21 % of control, 36 % of control, 51 % of control
dose: 560.0 mg/kg/injection, schedule: Q01DX001 (sc), vehicle: steriod suspending solution
  T/C: 24 % of control and 105 % of control

## C1CN1P1(N2CC2)=NP(N2CC2)(N2CC2)=NP(N2CC2)(N2CC2)=NP(N2CC2)(N2CC2)=N1
dose: 3.0 mg/kg/injection, schedule: Q01DX011 (oral), vehicle: carboxymethylcellulose (CMC)
  T/C: 85 % of control and 112 % of control
dose: 6.0 mg/kg/injection, schedule: Q01DX011 (oral), vehicle: carboxymethylcellulose (CMC)
  T/C: 39 % of control and 85 % of control
dose: 12.0 mg/kg/injection, schedule: Q01DX011 (oral), vehicle: carboxymethylcellulose (CMC)
  T/C: 22 % of control and 115 % of control
dose: 25.0 mg/kg/injection, schedule: Q01DX011 (oral), vehicle: carboxymethylcellulose (CMC)
  T/C: 25 % of control and 72 % of control
dose: 50.0 mg/kg/injection, schedule: Q01DX011 (oral), vehicle: carboxymethylcellulose (CMC)
  T/C: 8 % of control and 48 % of control

## Nc1nc2ncc(CNc3ccc(C(=O)NC(CCC(=O)O)C(=O)O)cc3)nc2c(=O)[nH]1 (centres undefined)
dose: 8.69 mg/kg/injection, schedule: Q01DX011 (ip), vehicle: carboxymethylcellulose (CMC)
  T/C: 78 % of control and 150 % of control
dose: 37.06 mg/kg/injection, schedule: Q01DX011 (ip), vehicle: carboxymethylcellulose (CMC)
  T/C: 47 % of control and 74 % of control

## C[C@H]1C(=O)O[C@@H]2CCN3CC=C(COC(=O)[C@](C)(O)[C@@]1(C)O)[C@H]23
dose: 22.5 mg/kg/injection, schedule: Q01DX011 (ip), vehicle: methylcellulose (MC)
  T/C: 38 % of control and 83 % of control
dose: 45.0 mg/kg/injection, schedule: Q01DX011 (ip), vehicle: methylcellulose (MC)
  T/C: 17 % of control and 49 % of control
dose: 90.0 mg/kg/injection, schedule: Q01DX011 (ip), vehicle: methylcellulose (MC)
  T/C: 12 % of control and 54 % of control

## Nc1nc(=S)c2ncn(C3OC(COC(=O)c4ccc(Cl)cc4)C(OC(=O)c4ccc(Cl)cc4)C3OC(=O)c3ccc(Cl)cc3)c2[nH]1 (centres undefined)
dose: 7.0 mg/kg/injection, schedule: Q01DX011 (ip), vehicle: carboxymethylcellulose (CMC)
  T/C: 9 % of control and 45 % of control

## C[C@]12C=CC(=O)C=C1CC[C@H]1[C@@H]3C[C@@H](O)[C@](O)(C(=O)CO)[C@@]3(C)C[C@H](O)[C@@]12F
dose: 6.25 mg/kg/injection, schedule: Q01DX011 (sc), vehicle: steriod suspending solution
  T/C: 34 % of control, 50 % of control, 91 % of control
dose: 25.0 mg/kg/injection, schedule: Q01DX011 (sc), vehicle: steriod suspending solution
  T/C: 13 % of control, 17 % of control, 63 % of control
dose: 50.0 mg/kg/injection, schedule: Q01DX011 (sc), vehicle: steriod suspending solution
  T/C: 10 % of control and 43 % of control

## CC(C)Cn1cnc2c(SCc3ccccc3F)nc(N)nc21
dose: 75.0 mg/kg/injection, schedule: Q01DX011 (ip), vehicle: methylcellulose (MC)
  T/C: 1 % of control and 96 % of control

## c1cc2n(n1)CCN2
dose: 28.75 mg/kg/injection, schedule: Q01DX011 (ip), vehicle: saline
  T/C: 57 % of control, 90 % of control, 99 % of control
dose: 57.5 mg/kg/injection, schedule: Q01DX011 (ip), vehicle: saline
  T/C: 50 % of control, 90 % of control, 94 % of control
dose: 115.0 mg/kg/injection, schedule: Q01DX011 (ip), vehicle: saline
  T/C: 26 % of control, 45 % of control, 52 % of control

## Cn1cnc2c(ncn2C2OC(CO)C(O)C2O)c1=N (centres undefined)
dose: 60.0 mg/kg/injection, schedule: Q01DX011 (ip), vehicle: saline
  T/C: 44 % of control and 94 % of control

## Nc1nc(N)c(N=O)c(Nc2ccc(Cl)c(Cl)c2)n1
dose: 28.0 mg/kg/injection, schedule: Q01DX011 (ip), vehicle: carboxymethylcellulose (CMC)
  T/C: 38 % of control and 72 % of control

## O=C=NC(c1ccccc1)(c1ccccc1)c1ccccc1
dose: 56.0 mg/kg/injection, schedule: Q01DX011 (ip), vehicle: carboxymethylcellulose (CMC)
  T/C: 71 % of control and 98 % of control

## CC/C(=C(/CC)c1ccc(O)cc1)c1ccc(O)cc1
dose: 6.43 mg/kg/injection, schedule: Q01DX011 (sc), vehicle: steriod suspending solution
  T/C: 52 % of control and 95 % of control

## C/C(=N\NC(=O)c1ccncc1)c1ccc(Br)cc1
dose: 60.0 mg/kg/injection, schedule: Q01DX011 (ip), vehicle: methylcellulose (MC)
  T/C: 28 % of control and 61 % of control

## CCC(=O)O[C@H]1CC[C@H]2[C@@H]3CCC4=CC(=O)CC[C@]4(C)[C@H]3CC[C@]12C
dose: 250.0 mg/kg/injection, schedule: Q01DX011 (sc), vehicle: steriod suspending solution
  T/C: 81 % of control and 117 % of control
dose: 1000.0 mg/kg/injection, schedule: Q01DX011 (sc), vehicle: steriod suspending solution
  T/C: 15 % of control, 43 % of control, 109 % of control

## C/C(=N\NC(=O)c1ccncc1)c1ccc(F)cc1
dose: 3.7 mg/kg/injection, schedule: Q01DX011 (ip), vehicle: methylcellulose (MC)
  T/C: 62 % of control and 93 % of control
dose: 7.5 mg/kg/injection, schedule: Q01DX011 (ip), vehicle: methylcellulose (MC)
  T/C: 37 % of control and 91 % of control
dose: 15.0 mg/kg/injection, schedule: Q01DX011 (ip), vehicle: methylcellulose (MC)
  T/C: 34 % of control and 78 % of control

## O=C(Nc1ccc([N+](=O)[O-])cc1)Nc1ccc([N+](=O)[O-])cc1 (tested in a mixture with another compound)
dose: 87.5 mg/kg/injection, schedule: Q01DX011 (ip), vehicle: methylcellulose (MC)
  T/C: 82 % of control and 109 % of control
dose: 350.0 mg/kg/injection, schedule: Q01DX011 (ip), vehicle: methylcellulose (MC)
  T/C: 57 % of control, 73 % of control, 112 % of control

## Nc1nc(=S)c2ncn(C3OC(COC(=O)c4ccc([N+](=O)[O-])cc4)C(OC(=O)c4ccc([N+](=O)[O-])cc4)C3OC(=O)c3ccc([N+](=O)[O-])cc3)c2[nH]1 (centres undefined)
dose: 6.25 mg/kg/injection, schedule: Q01DX011 (ip), vehicle: carboxymethylcellulose (CMC)
  T/C: 5 % of control and 64 % of control

## CCCCSc1nc(N)nc2c1ncn2CC(C)CC (centres undefined)
dose: 75.0 mg/kg/injection, schedule: Q01DX011 (ip), vehicle: carboxymethylcellulose (CMC)
  T/C: 8 % of control and 49 % of control

## CCC1OCC(C(Cl)CCl)O1 (centres undefined)
dose: 56.25 mg/kg/injection, schedule: Q01DX011 (ip), vehicle: methylcellulose (MC)
  T/C: 57 % of control and 102 % of control
dose: 112.5 mg/kg/injection, schedule: Q01DX011 (ip), vehicle: methylcellulose (MC)
  T/C: 65 % of control and 91 % of control
dose: 225.0 mg/kg/injection, schedule: Q01DX011 (ip), vehicle: methylcellulose (MC)
  T/C: 45 % of control and 89 % of control

## CO[C@H](C(=O)[C@@H](O)[C@@H](C)O)[C@@H]1Cc2cc3cc(OC4CC(OC5CC(O)C(O)C(C)O5)C(O)C(C)O4)c(C)c(O)c3c(O)c2C(=O)[C@H]1OC1CC(OC2CC(OC3CC(C)(O)C(O)C(C)O3)C(O)C(C)O2)C(O)C(C)O1 (some centres undefined)
dose: 0.5 mg/kg/injection, schedule: Q01DX011 (ip), vehicle: water
  T/C: 19 % of control and 47 % of control

## CCCCCCOP(=O)(N1CC1C)N1CC1C (centres undefined)
dose: 25.0 mg/kg/injection, schedule: Q01DX011 (ip), vehicle: saline
  T/C: 53 % of control and 108 % of control
dose: 50.0 mg/kg/injection, schedule: Q01DX011 (ip), vehicle: saline
  T/C: 40 % of control, 44 % of control, 72 % of control

## CN(C)[C@@H]1C(=O)C(C(=O)NCN(CCCl)CCCl)=C(O)[C@@]2(O)C(=O)C3=C(O)c4c(O)cccc4[C@@](C)(O)[C@H]3C[C@@H]12
dose: 30.0 mg/kg/injection, schedule: Q01DX011 (ip), vehicle: saline
  T/C: 31 % of control and 61 % of control

## CC(/C=N\N=C(N)N)=N/N=C(N)N
dose: 30.66 mg/kg/injection, schedule: Q01DX011 (ip), vehicle: carboxymethylcellulose (CMC)
  T/C: 61 % of control and 96 % of control

## c1nc(SC2CCCC2)c2[nH]cnc2n1
dose: 5.0 mg/kg/injection, schedule: Q01DX011 (ip), vehicle: carboxymethylcellulose (CMC)
  T/C: 8 % of control and 59 % of control
